Target: His6-WRN, full length purified (human, UniProt Q14191 1-1432)
Assay: cell-based or functional assay

Chain of UniProt Q14191 (Q14191 whole entry): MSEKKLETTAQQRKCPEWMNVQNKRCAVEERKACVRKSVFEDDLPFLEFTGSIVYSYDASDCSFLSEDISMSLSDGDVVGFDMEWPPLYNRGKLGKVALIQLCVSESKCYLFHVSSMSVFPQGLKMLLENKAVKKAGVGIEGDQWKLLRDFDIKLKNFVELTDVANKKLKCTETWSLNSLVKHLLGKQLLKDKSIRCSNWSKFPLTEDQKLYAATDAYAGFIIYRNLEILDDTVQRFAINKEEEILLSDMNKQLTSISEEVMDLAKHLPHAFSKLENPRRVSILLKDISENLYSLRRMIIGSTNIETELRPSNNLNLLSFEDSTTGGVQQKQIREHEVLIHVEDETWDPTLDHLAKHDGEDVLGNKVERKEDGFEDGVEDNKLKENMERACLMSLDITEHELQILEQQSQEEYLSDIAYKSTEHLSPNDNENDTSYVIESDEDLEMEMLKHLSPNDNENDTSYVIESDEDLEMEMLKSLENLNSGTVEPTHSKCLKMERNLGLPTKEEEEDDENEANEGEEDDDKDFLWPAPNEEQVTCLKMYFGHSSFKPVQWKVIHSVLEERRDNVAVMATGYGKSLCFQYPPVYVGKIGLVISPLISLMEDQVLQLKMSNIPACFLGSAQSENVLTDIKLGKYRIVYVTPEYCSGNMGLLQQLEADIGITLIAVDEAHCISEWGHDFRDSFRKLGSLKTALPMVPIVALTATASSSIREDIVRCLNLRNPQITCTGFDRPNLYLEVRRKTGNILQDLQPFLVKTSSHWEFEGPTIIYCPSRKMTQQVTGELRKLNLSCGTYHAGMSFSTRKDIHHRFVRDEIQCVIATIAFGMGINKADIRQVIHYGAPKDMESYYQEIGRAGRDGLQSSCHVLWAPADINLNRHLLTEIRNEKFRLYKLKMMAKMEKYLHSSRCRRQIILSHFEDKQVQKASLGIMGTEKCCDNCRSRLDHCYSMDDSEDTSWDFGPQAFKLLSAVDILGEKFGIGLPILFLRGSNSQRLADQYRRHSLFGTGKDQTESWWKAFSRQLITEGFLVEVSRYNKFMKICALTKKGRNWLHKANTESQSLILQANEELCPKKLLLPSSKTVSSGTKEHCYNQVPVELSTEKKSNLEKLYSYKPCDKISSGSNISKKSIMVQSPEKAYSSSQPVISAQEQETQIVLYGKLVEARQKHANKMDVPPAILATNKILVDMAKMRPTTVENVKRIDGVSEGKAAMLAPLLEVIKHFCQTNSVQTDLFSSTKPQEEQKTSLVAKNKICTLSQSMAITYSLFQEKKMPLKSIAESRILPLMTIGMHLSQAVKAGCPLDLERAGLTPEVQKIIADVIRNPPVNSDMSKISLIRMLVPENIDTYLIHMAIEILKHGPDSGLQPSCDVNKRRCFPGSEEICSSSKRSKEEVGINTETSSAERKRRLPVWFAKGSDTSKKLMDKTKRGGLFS

B1: GST-nucleolin RGG fragment (domain or fragment)
chain: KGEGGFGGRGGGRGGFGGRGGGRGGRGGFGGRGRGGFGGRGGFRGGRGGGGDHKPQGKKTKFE
modifications: GST tag omitted. Limits are not printed: from after RRM 4 to the C-terminus (the paper numbers the C-terminus 707, the entry 710)
- inhibition of WRN helicase unwinding of a 22 base pair partial duplex fork substrate, RGG fragment at molar ratios of 10:1 (over 60%) to 25:1 vs WRN: 90%
